# Some of the results follow.
# Molecular target: T1, OsWOX13 (Oryza sativa, UniProt Q5QMM3 1-267)
# T1 sequence: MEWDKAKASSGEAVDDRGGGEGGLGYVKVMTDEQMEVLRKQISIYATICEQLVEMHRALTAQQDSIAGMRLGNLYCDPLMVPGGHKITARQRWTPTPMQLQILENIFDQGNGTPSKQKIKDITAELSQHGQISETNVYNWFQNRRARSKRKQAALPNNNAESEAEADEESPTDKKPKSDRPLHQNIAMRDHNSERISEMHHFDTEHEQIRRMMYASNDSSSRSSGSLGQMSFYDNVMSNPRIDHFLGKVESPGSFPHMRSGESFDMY
# Experiment: protein-binding microarray (RPBM); PBS, 2% BSA, 51.3 ng/ul salmon testes DNA, 50 uM zinc acetate, 200 nM TF, 25 C, 1 h; high values mean tight binding
# Settings: protein: recombinant; tags: N-terminal polyhistidine and DsRed monomer fusion (pET32a); label: CyDye5-dUTP incorporated in the synthesized complementary strand; 3' TTTTT single-stranded linker to array surface; dsDNA, one strand shown
# How it was run: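 An Axon 4000B scanner gave the binding signal as per-feature fluorescence intensity in arbitrary units. This followed washing of a custom Agilent array that had been incubated for 1 h at 25 °C with 200 nM protein in PBS, 2% BSA, salmon testes DNA and 50 µM zinc acetate. The proteins were transcription factors fused at the N-terminus to polyhistidine and DsRed, expressed in E. coli BL21-CodonPlus and purified on Ni–NTA.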
row,Sequence,binding signal
1,TAGTAATTTGTTGGCCACAAGTGTGGCTAAGTTTGGTAAGCGGAGTCACCTAGTGCAG,5620 fluorescence intensity (a.u.)
2,TAAAATTATTTACATGTCTTTGACTTTCTAAAAGAAATCGCGGAGTCACCTAGTGCAG,6060 fluorescence intensity (a.u.)
3,TACACTAAAATTACATATGTAATTTAAACACTTACATAGGCGGAGTCACCTAGTGCAG,14400 fluorescence intensity (a.u.)
4,ATAATTAAGCATTTTCTTGTTTCATATGTGCTTGTTTGACCGGAGTCACCTAGTGCAG,3680 fluorescence intensity (a.u.)
5,TAACTATAATGAAATTTACTGGGAGTTTATGCTGTGCTTGCGGAGTCACCTAGTGCAG,4040 fluorescence intensity (a.u.)
6,CATTGATTGGCCAGCCGAGGTCTAGCCTCAACCTAGCGTGCGGAGTCACCTAGTGCAG,54800 fluorescence intensity (a.u.)
7,ATGTGATTGATTCTGCTGGTGGATTCTCTCTTCGGTTTGCCGGAGTCACCTAGTGCAG,62800 fluorescence intensity (a.u.)
8,AAAGTAAACAGATGAATAAACCAGTTCTCATGCAAGAAACCGGAGTCACCTAGTGCAG,3870 fluorescence intensity (a.u.)
9,TTAAATTGGATCTGATTGATTTGTTTAAGGAAACCACCGGCGGAGTCACCTAGTGCAG,54600 fluorescence intensity (a.u.)
10,GCTACCTGTAATTTACGTTTCGTCAAGAAACCACCTTTTACGGAGTCACCTAGTGCAG,4500 fluorescence intensity (a.u.)
11,ATGAAAACATGATTGCAAGTGATTCATCAGTGGCGTACAGCGGAGTCACCTAGTGCAG,20000 fluorescence intensity (a.u.)
12,ACACATGGACTCTCAAAAGTGATTGGCAACTGACAGCTAACGGAGTCACCTAGTGCAG,13800 fluorescence intensity (a.u.)
13,ATCACTTAATTTAAGTATATATTAATATAAGAACTATATACGGAGTCACCTAGTGCAG,5150 fluorescence intensity (a.u.)
14,TAAATTATTAGTAATTGCTAAGTTTTAAAATCCAGAAAGTCGGAGTCACCTAGTGCAG,11700 fluorescence intensity (a.u.)
15,TAACTGCAATTAGGGATGCATGACTAAAATAGAGCCAGCTCGGAGTCACCTAGTGCAG,3560 fluorescence intensity (a.u.)
16,TGTGATTACGAGCGCACAGACACAAAGGGTGTAGCTCTCGCGGAGTCACCTAGTGCAG,17800 fluorescence intensity (a.u.)
17,AGTCTAATTGGCAAAAGCAGGTGGTTCTTTTATCTTGAAACGGAGTCACCTAGTGCAG,33400 fluorescence intensity (a.u.)
18,ACGGAAATTTACAGTACAATTATTTTCCATTAGCCCGATTCGGAGTCACCTAGTGCAG,10200 fluorescence intensity (a.u.)
19,TCCATCGATCTCTCAATTAATTAACCTCAAGAGAGAAGTACGGAGTCACCTAGTGCAG,5890 fluorescence intensity (a.u.)
20,GTATTATAAATTTATAATTGGTGCCAGCCGCAAATTTGCGCGGAGTCACCTAGTGCAG,19100 fluorescence intensity (a.u.)
21,AGCACCTTCAATTTGTAAATATACATGTAATTGTACAGTACGGAGTCACCTAGTGCAG,4750 fluorescence intensity (a.u.)

row,Sequence,binding signal
1,CCATGATTTTGAAGTACTCTTTTATTTGAAGAAGCAAATTCGGAGTCACCTAGTGCAG,6660 fluorescence intensity (a.u.)
2,TGCTGGGAATCAATCAACGGGTACAAAAGATGTATGGTGACGGAGTCACCTAGTGCAG,5990 fluorescence intensity (a.u.)
3,GAGGACAGATCAAATGATTTTAATGACGAAACATGTGCTTCGGAGTCACCTAGTGCAG,11000 fluorescence intensity (a.u.)
4,AAATCACAATCATCATTTATTCAATTTCTCTATCTCTACCCGGAGTCACCTAGTGCAG,6050 fluorescence intensity (a.u.)
5,ATGCAACCATAGATCAATCAAAGGAGAACATGTTCAGATGCGGAGTCACCTAGTGCAG,3980 fluorescence intensity (a.u.)
6,GCTAATTGGTTCTCATTCGATTTGCCCATGCTCGAGTTGACGGAGTCACCTAGTGCAG,45400 fluorescence intensity (a.u.)
7,AATCTAATACTTAATTAATCATGCGATAATATGTCGCTACCGGAGTCACCTAGTGCAG,7220 fluorescence intensity (a.u.)
8,ATCCTTAATGCTAATTTGGATATGATGTGAACAAAATGAGCGGAGTCACCTAGTGCAG,8040 fluorescence intensity (a.u.)
9,GTGGATGTAATGAAATTAATTTGACATGAATGCAATTCCTCGGAGTCACCTAGTGCAG,26700 fluorescence intensity (a.u.)
10,TTTCATTATAATTGAGACTGTAAATCTCGTCTACTTTCTCCGGAGTCACCTAGTGCAG,17600 fluorescence intensity (a.u.)
11,TGTAAATTGTCTCCGGCGGTTAATTCTTTTAATTAAGTTTCGGAGTCACCTAGTGCAG,4900 fluorescence intensity (a.u.)
12,AGATAATAATTATCAGTGGGTAATGATGTGGCACACTTACCGGAGTCACCTAGTGCAG,22300 fluorescence intensity (a.u.)
13,TGTGATACAATCATCTCTATGATTACCTCTAGGGCATATCCGGAGTCACCTAGTGCAG,17400 fluorescence intensity (a.u.)
14,GCAATCATACTAGATTATTTGATTGGATCGTGTATCAGAACGGAGTCACCTAGTGCAG,30300 fluorescence intensity (a.u.)
15,TTTAATAGAAGAAACTGAATGCTAGGTAAGCCTAAACCTACGGAGTCACCTAGTGCAG,3690 fluorescence intensity (a.u.)
16,ATAAATTAACTAGATGAATTCAAATAAGAAGAAGAGCTGTCGGAGTCACCTAGTGCAG,35100 fluorescence intensity (a.u.)
17,GATGAGATTTGTCTGCCCCGATTGGTTTTCTCCATTTCTTCGGAGTCACCTAGTGCAG,4060 fluorescence intensity (a.u.)
18,ATACCGCCATTAATTAGCATGTACTCACAAACTCTAAACACGGAGTCACCTAGTGCAG,7420 fluorescence intensity (a.u.)
19,GTGTCAATTATCTAGGTGGATTGGTTCCACCACAACGAACCGGAGTCACCTAGTGCAG,28600 fluorescence intensity (a.u.)
20,TTAAATGATTATCAAAACAAGACAATGATAATAAAGTAACCGGAGTCACCTAGTGCAG,7070 fluorescence intensity (a.u.)
21,CTCCCAGTCATTTTGGAATTAGTTCTGAAGATTGTGTTTGCGGAGTCACCTAGTGCAG,3290 fluorescence intensity (a.u.)

# Reference: publication PMC7819943, “Rice protein-binding microarrays: a tool to detect cis-acting elements near promoter regions in rice”
